# Reference: US20230145766A1
# T1: IL-2Rβ receptor with an avi tag and an His6 tag at the C-terminus (human), P14784
# T1 chain: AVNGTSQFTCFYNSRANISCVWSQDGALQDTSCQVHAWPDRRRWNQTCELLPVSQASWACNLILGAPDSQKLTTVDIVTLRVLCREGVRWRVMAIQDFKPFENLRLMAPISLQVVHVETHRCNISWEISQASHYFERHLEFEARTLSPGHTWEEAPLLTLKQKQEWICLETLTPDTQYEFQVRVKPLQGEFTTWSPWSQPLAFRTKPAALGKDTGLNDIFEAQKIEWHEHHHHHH
# B1: Y040 (IL-2^.3X-2*(G4S)-FcLALA) (Fc fusion)
# chain: APTSSSTKKTQLQLEHLLLDLQMILNGINNYKNPKLTDMLTFEFYMPKKATELKHLQCLERELKPLEEVLNLAQSKNFHLRPRDLISNINVIVLELKGSETTFMCEYADETATIVEFLNRWITFSQSIISTLTGGGGSGGGGS[omitted - human IgG1 Fc with changes]
# modifications: here or on the partner: biotin on the avi tag (enzymatic labelling with BirA)
# B2: 2131 (Fc fusion)
# chain: APASSSTKKTQLQLEHLLLDLQMILNGINNYKNPELEEMLTAKFYMPKKATELKHLQCLEEELKPLEEVLNLAGDASIHDLISDINVIVLELKGSETTFMCEYADETATIVEFLNRWITFSQSIISTLTGGGGSGGGGS[omitted - human IgG1 Fc with changes]
# B3: 2168 (Fc fusion)
# chain: APASSSTKKTQLQLEHLLLDLQMILNGINNYKNPELEEMLTAKFYMPKKATELKHLQCLEEELKPLEEVLNLAGDASIHTLISNINVIVLELKGSETTFMCEYADETATIVEFLNRWITFSESIISTLTGGGGSGGGGS[omitted - human IgG1 Fc with changes]
# B4: 2169 (Fc fusion)
# chain: APASSSTKKTQLQLEHLLLDLQMILNGINNYKNPELEEMLTAKFYMPKKATELKHLQCLEEELKPLEEVLNLAGDASIHNLISNINVIVLELKGSETTFMCEYADETATIVEFLNRWITFSESIISTLTGGGGSGGGGS[omitted - human IgG1 Fc with changes]
# B5: 2454 (Fc fusion)
# chain: APASSSTKKTQLQLEHLLLNLQMILNGINNYKNPKLTRMLTFKFYMPKKATELKHLQCLEEELKPLEEVLNLAGDASIHDLISNINVIVLELKGSETTFMCEYADETATIVEFLNRWITFSQSIISTLTGGGGSGGGGS[omitted - human IgG1 Fc with changes]
# B6: 2170 (Fc fusion)
# chain: APASSSTKKTQLQLETLLLDLQMILNGINNYKNPELEEMLTAKFYMPKKATELKHLQCLEEELKPLEEVLNLAGDASIHQLISNINVIVLELKGSETTFMCEYADETATIVEFLNRWITFSQSIISTLTGGGGSGGGGS[omitted - human IgG1 Fc with changes]
# B7: 2162 (Fc fusion)
# chain: APASSSTKKTQLQLEHLLLDLQMILNGINNYKNPELEEMLTAKFYMPKKATELKHLQCLEEELKPLEEVLNLAGDASIHNLISNINVIVLQLKGSETTFMCEYADETATIVEFLNRWITFSQSIISTLTGGGGSGGGGS[omitted - human IgG1 Fc with changes]
# B8: 2107 (Fc fusion)
# chain: APASSSTKKTQLQLEHLLLNLQMILNGINNYKNPELEEMLTAKFYMPKKATELKHLQCLEEELKPLEEVLNLAGDASIHDLISNINVIVLELKGSETTFMCEYADETATIVEFLNRWITFSQSIISTLTGGGGSGGGGS[omitted - human IgG1 Fc with changes]
# B9: 2481 (Fc fusion)
# chain: APASSSTKKTQLQLEHLLLDLQMILNGINNYKNPKLTRMLTFKFYMPKKATELKHLQCLEEELKPLEEVLNLAGDASIHDLISRINVIVLELKGSETTFMCEYADETATIVEFLNRWITFSQSIISTLTGGGGSGGGGS[omitted - human IgG1 Fc with changes]
# B10: 2478 (Fc fusion)
# chain: APASSSTKKTQLQLEHLLLDLQMILNGINNYKNPKLTRMLTFKFYMPKKATELKHLQCLEEELKPLEEVLNLAGDASIHDLISDINVIVLELKGSETTFMCEYADETATIVEFLNRWITFSQSIISTLTGGGGSGGGGS[omitted - human IgG1 Fc with changes]
# B11: 2166 (Fc fusion)
# chain: APASSSTKKTQLQLETLLLDLQMILNGINNYKNPELEEMLTAKFYMPKKATELKHLQCLEEELKPLEEVLNLAGDASIHTLISNINVIVLELKGSETTFMCEYADETATIVEFLNRWITFSQSIISTLTGGGGSGGGGS[omitted - human IgG1 Fc with changes]
# B12: Y092 (IL-2^.Y30E1.15BCL-2*(G4S)-FcLALA) (Fc fusion)
# chain: APTSSSTKKTQLQLEHLLLDLQMILNGINNYKNPELEEMLTAKFYMPKKATELKHLQCLEEELKPLEEVLNLAGDASIHDLISNINVIVLELKGSETTFMCEYADETATIVEFLNRWITFSQSIISTLTGGGGSGGGGS[omitted - human IgG1 Fc with changes]
# B13: Y089 (IL-2^.Y30E1.truncate1-2*(G4S)-FcLALA) (Fc fusion)
# chain: APTSSSTKKTQLQLEHLLLDLQMILNGINNYKNPELEEMLTAKFYMPKKATELKHLQCLEEELKPLEEVLNLAQSKNFHDLISNINVIVLELKGSETTFMCEYADETATIVEFLNRWITFSQSIISTLTGGGGSGGGGS[omitted - human IgG1 Fc with changes]
# Biological target: T1, IL-2Rβ receptor with an avi tag and an …
# Assay: BLI (ForteBio); biotinylated receptor on SA sensor, 100 nM IL-2-Fc in solution, 1:1 model
# Conditions: remark: other sources report otherwise
row,Kd [nM],Binder
1,16,B1

# Biological target: IL-2 receptor on the surface of human lymphocytes (T cells, NK cells, Treg cells from PBMC) (human)
# Assay: cell-based or functional assay
# Conditions: not given
Ratio of reduction: IL-2 mutant EC50 (CD4+ or CD8+)/Y-144 EC50 (pSTAT5) [times],"EC50 of pSTAT5, CD4+CD25- T cells [nM]","EC50 of pSTAT5, CD8+ T cells","EC50 of pSTAT5, NK cells [nM]","EC50 of pSTAT5, Treg cells [nM]",Binder
> 1000,,,,,B2
> 1000,,,,,B3
> 1000,,,,,B4
,636,34.2 mM,148,0.115,B5
> 1000,,,,,B6
> 1000,,,,,B7
> 1000,,,,,B8
,636,,148,0.115,B9
,1480,21700 nM,22.1,0.0618,B10
> 1000,,,,,B11

# Biological target: IL-2 receptor on the surface of human lymphocytes (T cells, NK cells, Treg cells from PBMC) (human)
# Assay: cell-based or functional assay
# Conditions: not given
# Remark: another data set of the same source
row,CD25-pSTAT5 EC50 (CD8+ CD25- T cells) [nM],Binder
1,0.664,B12
2,2.2,B13
